Source: publication PMC9911399, “Two distinct binding modes provide the RNA-binding protein RbFox with extraordinary sequence specificity”
Numbering of substitutions follows the chain as printed; changes in the protein carry UniProt numbers. This is one part of the list.

T1: RBFOX1 RRM (Homo sapiens, UniProt Q9NWB1 109-208)
T1 sequence: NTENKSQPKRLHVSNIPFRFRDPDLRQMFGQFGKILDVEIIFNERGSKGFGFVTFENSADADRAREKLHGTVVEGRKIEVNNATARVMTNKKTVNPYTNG

B1: UGAGAGA (DNA:RNA)
RNA: GGGAGACCGGAAUUCAGAUUGUCCUGAGAGAUUAAAUCCCGUCGUAGCCACCA
DNA 1: CAATCTGAATTCCGGTCTCCC
DNA 2: TGGTGGCTACGACGGGATT
B2: AGGGCCU (DNA:RNA)
RNA: B1 RNA with U25A, A27G, A29C, G30C, A31U
DNA 1: CAATCTGAATTCCGGTCTCCC
DNA 2: TGGTGGCTACGACGGGATT
B3: UAGGUCG (DNA:RNA)
RNA: B1 RNA with G26A, A27G, A29U, G30C, A31G
DNA 1: CAATCTGAATTCCGGTCTCCC
DNA 2: TGGTGGCTACGACGGGATT
B4: AAUCUUC (DNA:RNA)
RNA: GGGAGACCGGAAUUCAGAUUGUCCAAUCUUCUUAAAUCCCGUCGUAGCCACCA
DNA 1: CAATCTGAATTCCGGTCTCCC
DNA 2: TGGTGGCTACGACGGGATT
B5: AUCUCAA (DNA:RNA)
RNA: B4 RNA with A26U, U27C, C28U, U29C, U30A, C31A
DNA 1: CAATCTGAATTCCGGTCTCCC
DNA 2: TGGTGGCTACGACGGGATT
B6: AAUAAGA (DNA:RNA)
RNA: B4 RNA with C28A, U29A, U30G, C31A
DNA 1: CAATCTGAATTCCGGTCTCCC
DNA 2: TGGTGGCTACGACGGGATT
B7: UUGCUCA (DNA:RNA)
RNA: B4 RNA with A25U, A26U, U27G, U30C, C31A
DNA 1: CAATCTGAATTCCGGTCTCCC
DNA 2: TGGTGGCTACGACGGGATT
B8: CGUUAUU (DNA:RNA)
RNA: B4 RNA with A25C, A26G, C28U, U29A, C31U
DNA 1: CAATCTGAATTCCGGTCTCCC
DNA 2: TGGTGGCTACGACGGGATT
B9: UCAUCUU (DNA:RNA)
RNA: B1 RNA with G26C, G28U, A29C, G30U, A31U
DNA 1: CAATCTGAATTCCGGTCTCCC
DNA 2: TGGTGGCTACGACGGGATT
B10: CGUCUCU (DNA:RNA)
RNA: B4 RNA with A25C, A26G, U30C, C31U
DNA 1: CAATCTGAATTCCGGTCTCCC
DNA 2: TGGTGGCTACGACGGGATT
B11: GGGCAAU (DNA:RNA)
RNA: B1 RNA with U25G, A27G, G28C, G30A, A31U
DNA 1: CAATCTGAATTCCGGTCTCCC
DNA 2: TGGTGGCTACGACGGGATT
B12: CGAGGGA (DNA:RNA)
RNA: B1 RNA with U25C, A29G
DNA 1: CAATCTGAATTCCGGTCTCCC
DNA 2: TGGTGGCTACGACGGGATT
B13: CCGUGAA (DNA:RNA)
RNA: B1 RNA with U25C, G26C, A27G, G28U, A29G, G30A
DNA 1: CAATCTGAATTCCGGTCTCCC
DNA 2: TGGTGGCTACGACGGGATT
B14: UCCAUUA (DNA:RNA)
RNA: B4 RNA with A25U, A26C, U27C, C28A, C31A
DNA 1: CAATCTGAATTCCGGTCTCCC
DNA 2: TGGTGGCTACGACGGGATT
B15: AAGCGGU (DNA:RNA)
RNA: B4 RNA with U27G, U29G, U30G, C31U
DNA 1: CAATCTGAATTCCGGTCTCCC
DNA 2: TGGTGGCTACGACGGGATT
B16: AUGGGCC (DNA:RNA)
RNA: B4 RNA with A26U, U27G, C28G, U29G, U30C
DNA 1: CAATCTGAATTCCGGTCTCCC
DNA 2: TGGTGGCTACGACGGGATT
B17: CGUAGUA (DNA:RNA)
RNA: B4 RNA with A25C, A26G, C28A, U29G, C31A
DNA 1: CAATCTGAATTCCGGTCTCCC
DNA 2: TGGTGGCTACGACGGGATT
B18: UAGCGAA (DNA:RNA)
RNA: B4 RNA with A25U, U27G, U29G, U30A, C31A
DNA 1: CAATCTGAATTCCGGTCTCCC
DNA 2: TGGTGGCTACGACGGGATT
B19: AAUCAGA (DNA:RNA)
RNA: B4 RNA with U29A, U30G, C31A
DNA 1: CAATCTGAATTCCGGTCTCCC
DNA 2: TGGTGGCTACGACGGGATT
B20: AAGACGG (DNA:RNA)
RNA: B4 RNA with U27G, C28A, U29C, U30G, C31G
DNA 1: CAATCTGAATTCCGGTCTCCC
DNA 2: TGGTGGCTACGACGGGATT

Target: T1, RBFOX1 RRM
Assay: EMSA; HiTS-Eq, 1 nM pool, 10 min; buffer printed only for the single-RNA assays: 10 mM Tris pH 7.5, 150 mM NaCl, 3.4 mM EDTA, 0.001% NP-40, 30 C
Conditions: tags: His6 N-terminal (pET28a); label: 5' 32P
Summary of the method: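 These values rest on relative association constants, computed from read-count changes of each RNA species versus the control reaction and normalised to the cognate motif. Reads came from free RNA recovered by 8% native PAGE after purified RbFox RRM (wild type or mutant) at increasing concentrations was equilibrated for 10 min in 50 µL with 1 nM of a 5′-radiolabelled pool with 7 randomized nucleotides and DNA-annealed flanks.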

**Q.** For B1, which binding signal is on record?
**A.** 0.0162 KA relative to UGCAUGU

**Q.** B2 was tested. Which binding signal did it give?
**A.** 0.0174 KA relative to UGCAUGU

**Q.** How did the binding signal turn out when B3 was run?
**A.** 0.0145 KA relative to UGCAUGU

**Q.** Which binding signal does the source give for B4 here?
**A.** 0.00213 KA relative to UGCAUGU

**Q.** How did the binding signal turn out when B5 was run?
**A.** 0.000569 KA relative to UGCAUGU

**Q.** B6 was tested. Which binding signal did it give?
**A.** 0.00286 KA relative to UGCAUGU

**Q.** Which binding signal does the source give for B7 here?
**A.** 0.0194 KA relative to UGCAUGU

**Q.** For B8, which binding signal is on record?
**A.** 0.00594 KA relative to UGCAUGU

**Q.** B9 was tested. Which binding signal did it give?
**A.** 0.0034 KA relative to UGCAUGU

**Q.** How did the binding signal turn out when B10 was run?
**A.** 0.00298 KA relative to UGCAUGU

**Q.** For B11, which binding signal is on record?
**A.** 0.0118 KA relative to UGCAUGU

**Q.** Which binding signal does the source give for B12 here?
**A.** 0.00402 KA relative to UGCAUGU

**Q.** With B13 as the binder, how does the binding signal read?
**A.** 0.0108 KA relative to UGCAUGU

**Q.** With B14 as the binder, how does the binding signal read?
**A.** 0.003 KA relative to UGCAUGU

**Q.** For B15, which binding signal is on record?
**A.** 0.00838 KA relative to UGCAUGU

**Q.** How did the binding signal turn out when B16 was run?
**A.** 0.0157 KA relative to UGCAUGU

**Q.** How did the binding signal turn out when B17 was run?
**A.** 0.00483 KA relative to UGCAUGU

**Q.** For B18, which binding signal is on record?
**A.** 0.00919 KA relative to UGCAUGU

**Q.** With B19 as the binder, how does the binding signal read?
**A.** 0.00408 KA relative to UGCAUGU

**Q.** For B20, which binding signal is on record?
**A.** 0.00528 KA relative to UGCAUGU
